doi:10.1101/2021.09.24.461649 (bioRxiv, 2021)

Biological target: the molecule itself
Assay: SEC

B1: EccA1 ATPase, wild type (enzyme)
chain: MTDRLASLFESAVSMLPMSEARSLDLFTEITNYDESACDAWIGRIRCGDTDRVTLFRAWYSRRNFGQLSGSVQISMSTLNARIAIGGLYGDITYPVTSPLAITMGFAACEAAQGNYADAMEALEAAPVAGSEHLVAWMKAVVYGAAERWTDVIDQVKSAGKWPDKFLAGAAGVAHGVAAANLALFTEAERRLTEANDSPAGEACARAIAWYLAMARRSQGNESAAVALLEWLQTTHPEPKVAAALKDPSYRLKTTTAEQIASRADPWDPGSVVTDNSGRERLLAEAQAELDRQIGLTRVKNQIERYRAATLMARVRAAKGMKVAQPSKHMIFTGPPGTGKTTIARVVANILAGLGVIAEPKLVETSRKDFVAEYEGQSAVKTAKTIDQALGGVLFIDEAYALVQERDGRTDPFGQEALDTLLARMENDRDRLVVIIAGYSSDIDRLLETNEGLRSRFATRIEFDTYSPEELLEIANVIAAADDSALTAEAAENFLQAAKQLEQRMLRGRRALDVAGNGRYARQLVEASEQCRDMRLAQVLDIDTLDEDRLREINGSDMAEAIAAVHAHLNMRE
With B1 as the protein, how does the “stoichiometry N” value read?
Its value is 6.
